PubChem BioAssay AID1346428 (National Center for Advancing Translational Sciences (NCATS), 2018)
Where “and” joins values, the source holds several entries; their conditions need not be identical. Equal values may be shown once. Out of some 48,000 compounds screened, about 1,200 (2.5%) were called active. Not shown: some 2% with an inconclusive outcome.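 Rule for the calls: active = activation of at least 60% and not above a set upper limit (about 1 call in 100 departs from these limits); inconclusive = activation of 40% to 60%, or above that upper limit; inactive = activation under 40%.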 The list shows a part of the results.

What follows are compounds tested against Probable G-protein coupled receptor 32 (Homo sapiens) (UniProt O75388) (assay: qHTS for Agonists of Human Resolvin D1 Receptor DRV1). Conditions: CHO-K1 GPR32 beta-arrestin PathHunter luminescence, 90 min; at 76.9 µM; hits give high values; zero percent set by DMSO-only wells.
Sequence of UniProt O75388 (O75388 whole entry, looked up): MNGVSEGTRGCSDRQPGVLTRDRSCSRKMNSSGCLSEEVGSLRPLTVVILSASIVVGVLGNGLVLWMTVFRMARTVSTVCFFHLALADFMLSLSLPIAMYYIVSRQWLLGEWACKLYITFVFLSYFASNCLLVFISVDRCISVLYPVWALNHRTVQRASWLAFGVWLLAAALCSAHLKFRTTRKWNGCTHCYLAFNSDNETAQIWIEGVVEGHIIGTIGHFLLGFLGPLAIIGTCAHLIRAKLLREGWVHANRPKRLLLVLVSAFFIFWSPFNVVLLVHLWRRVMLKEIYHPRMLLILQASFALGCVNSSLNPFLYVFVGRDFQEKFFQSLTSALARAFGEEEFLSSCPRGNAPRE
Procedure, shortened: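 Beta-arrestin recruitment read-out: luminescence from complemented beta-Gal in CHO-K1 GPR32 PathHunter cells, measured 1 h after detection reagent at ambient temperature following 90 min compound exposure at 37 °C; DMSO served as basal (EC0) control.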
Note: 0% is about no effect.

activation, inactive:
CCOc1cccc(CC(=O)N2CCc3c([nH]c4ccccc34)C2c2ccc(Cl)cc2)c1OCC (centres undefined) -27.4%
COc1cc(Cl)c(C)cc1NC(=O)c1ccc2c(Cl)c3c(nc2c1)CCC3 21.4%
CCN(CC)CC(=O)Oc1ccc(NC(C)=O)cc1 0.159%
Cc1cc(C)c(NC(=O)CSc2nc3nc(C)cc(C)n3n2)c(C)c1 -4.88%
Cc1cc(C)c(NC(=O)CSc2ccc(-c3sc(-c4ccccc4)nc3C)nn2)c(C)c1 -0.235%
CCn1c(=O)c2sccc2n2c(CCCC(=O)N3CCN(c4cc(Cl)ccc4C)CC3)nnc12 -11.4%
CCCCn1c(SCC(=O)NCCCOC)nc2c(sc3ccccc32)c1=O -15.4%
O=C(CSc1nc(-c2ccc(F)cc2)[nH]c1-c1ccccc1)NCC1CCCO1 (centres undefined) -10.1%
COc1ccc(-c2nnc(SCC(=O)NCc3ccc(C)cc3)nc2-c2ccc(OC)c(OC)c2)cc1OC -29.7%
CCc1ccc(C(=O)c2cn(CC(=O)Nc3ccc(OC)c(OC)c3)c3ccc(C)cc3c2=O)cc1 -4.79%
CCCCOc1cccc(C2c3c(oc4ccccc4c3=O)C(=O)N2c2ccccn2)c1 (centres undefined) -6.51%
CCS(=O)(=O)N1CCC(n2c(C(F)(F)F)nc3cccnc32)CC1 19.9%
COc1ccccc1N1CCN(c2ncccc2-c2nc(-c3ccc(Cl)cc3)no2)CC1 -23.6%
O=C(CCN1N=C(c2ccccc2)CCC1=O)NCCc1ccc(Cl)cc1 -30.1%
COCCN1C(=O)c2[nH]nc(-c3ccccc3O)c2C1c1ccc(Cl)c(Cl)c1 (centres undefined) -13.3%
CCCC1=Nc2cc(C(=O)NC(C)c3ccccc3)ccc2Sc2ccc(C)cc21 (centres undefined) -14.5%
Cc1nn(C(=O)c2c(F)cccc2F)c(C)c1S(=O)(=O)N1CCOCC1 -3.6%
O=c1c2c(-c3ccccc3)ccnc2[nH]n1-c1ccccc1 -28.1%
Cc1ccc(CN(Cc2ccco2)C(=O)COc2cc(C)c(Cl)c(C)c2)cc1 8.98%
O=C(NCCc1ccccc1)c1cc(S(=O)(=O)N2CCCCC2)c[nH]1 -7.49%
CCOC(=O)c1cnc2c(ccc3ccccc32)c1Nc1cccc(OC)c1 -1.18%
COc1ccc(CCNC(=O)c2ccc3c(c2)N(Cc2ccccc2F)C(=O)c2ccccc2S3(=O)=O)cc1OC -1.35%
Cc1ccc(NC(=O)/C=C/c2ccc(C)o2)c(C)c1 -11.2%
Cc1cccc(N2CCN(C(=O)c3cc4c(=O)oc5ccccc5c4s3)CC2)c1C -4.47%
Cc1cc(C(F)F)n2nc(C(=O)Nc3c(C)cccc3C)nc2n1 -33.3%
CCn1cc(CNC(=O)c2cc(-c3ccc(C)c(C)c3)nc3ccccc23)c(C)n1 14%
CC1CCCCN1C(=O)Cn1c(SCC(=O)N(C)c2ccccc2)nc2ccccc21 (centres undefined) 11.8%
Cc1ccc(NC(=O)c2ccc(=O)n(CC(=O)Nc3cccc(C)c3)n2)cc1 -2.22%
Cc1ccc(NC(=O)c2ccc(NC(=O)N3CCSc4nc(C)cc(C)c43)cc2)c(Cl)c1 -9.46%
O=C(Cn1nc2c(cc1=O)CCCC2)Nc1ccccc1C(F)(F)F -12.9%
COC(=O)c1ccccc1NC(=O)c1cc2nc(-c3ccc(OC)cc3)cc(C(F)(F)F)n2n1 -5.3%
O=C(C1CCCCC1)N1CC(=O)N2CCc3ccccc3C2C1 (centres undefined) -7.88% and -17.6%
Cc1cccc(C(c2sc3nc(-c4ccco4)nn3c2O)N2CCN(c3ccccc3)CC2)c1 (centres undefined) -6.39%
O=C(CSc1n[nH]c(-c2ccccc2Cl)n1)N1CCN(c2ccccc2)CC1 -2.47%
Cc1ccc(C)c(NC(=O)c2ccc3nc(CCc4ccccc4)oc3c2)c1 -36.1%
Cc1cc(NC(=O)c2cccs2)cc(-c2nc3cc(Cl)ccc3o2)c1O -2.97%
CCCc1ccc(C2Sc3ccccc3NC3=C2C(=O)c2ccccc23)cc1 (centres undefined) -61.3%
CCOC(=O)CNS(=O)(=O)c1cc(-c2nnc(Nc3cccc(O)c3)c3ccccc23)ccc1C -17.6%
CCC(=O)NCc1cc(-c2nn(C)c(=O)c3ccccc23)ccc1OC -9.54%
CCn1cc2nc(SCC(=O)Nc3ccc(C)cc3C)n(Cc3ccc(C)cc3)c(=O)c2n1 -7.43%
CCc1ccc(Oc2c(C(F)(F)F)oc3c(CN4CCN(C)CC4)c(O)ccc3c2=O)cc1 -11.2%
O=C(Cn1cc(SCc2cccc(Cl)c2)c2ccccc21)N1CCCCCC1 -36.2%
Cc1ccccc1CNc1ncnc2c1ncn2C1OC(CO)C(O)C1O (centres undefined) 1.43%
CCOc1ccccc1CNC(=O)c1cnc2sc(N3CCCCCC3)nn2c1=O -3.65%
O=C(NCCc1csc2nc(-c3ccc(F)cc3)nn12)c1cccc(C(F)(F)F)c1 -2.12%
COc1ccccc1CN(Cc1ccco1)c1cnc(S(C)(=O)=O)nc1C(=O)Nc1cc(C)ccc1C -14%
COc1cccc(CNC(=O)Cn2ncc3c4ccccc4n(Cc4ccccc4)c3c2=O)c1 -12.8%
COc1ccc(-n2ccn(CC(=O)NCCc3ccccc3)c(=O)c2=O)cc1OC -5.16%
CCc1ccc(S(=O)(=O)NCCc2csc3nc(-c4ccccc4)nn23)s1 35.6%
CC(C)(C)c1ccc(-c2nc3cc(NC(=O)c4cccc(Br)c4)ccc3o2)cc1 2.01%
O=S(=O)(O)c1ccc(O)cc1 1.27%
COc1cccc(C(=O)NCc2nc(-c3ccccc3)no2)c1OC 32.2%
Cn1c(=O)c2c(ncn2CC(=O)Nc2cccc(C(F)(F)F)c2)n(C)c1=O 21.5%
Cc1cccc(NC(=O)CCc2c(C)nc3nc(CNC(=O)c4cccc(F)c4)nn3c2C)c1 6.37%
COc1ccc(Cn2c(SCc3ccc(C(=O)NC4CCCC4)cc3)nc3cccnc32)cc1 -6.28%
O=C(Cn1c(=O)n(Cc2ccc3c(c2)OCO3)c(=O)c2oc3ccccc3c21)Nc1ccc(F)cc1 -24.7%
COc1ccc(-c2noc(CSc3nnc(-c4ccncc4)n3-c3ccc(C)cc3)n2)cc1OC 35.6%
CCOC(=O)c1c(C)oc2nc(C)nc(NCc3ccc(Cl)cc3)c12 -3.98%
CCn1cc(C(=O)N2CCN(c3ccccc3F)CC2)c(=O)c2cc(S(=O)(=O)N(C)C3CCCCC3)ccc21 6.05%
Cc1cccc(NC(=O)CSc2nc(-c3ccco3)nc3cc(=O)[nH]n23)c1 -9.52%
Cc1cccc(NC(=O)c2nc(S(C)(=O)=O)ncc2Cl)c1 -9.5%
COc1cc(NC(=O)c2ccccc2)ccc1NC(=O)c1cc2ccccc2o1 30.4%
COc1ccc(-c2cc3ccc(O)c(CN4CCOCC4)c3oc2=O)cc1 25.6%
CC(=O)N1CCc2cc(Br)cc(S(=O)(=O)N3CCC(C(=O)N(C)c4cc(C)ccc4C)CC3)c21 -11.8%
COC(=O)c1c(SC)nc2ccccc2c1OCc1ccccc1C -18.3%
COc1ccc(-c2ccc3c(N)c(C(=O)NCc4ccc(Cl)cc4)sc3n2)cc1 2.93%
O=C(CCn1c(=O)c2ccccc2n(Cc2ccc(F)cc2Cl)c1=O)NCc1ccc2c(c1)OCO2 2.02%
CCc1ccc(NC(=O)C2CCN(S(=O)(=O)c3ccc4[nH]c5c(c4c3)CCCCC5)CC2)cc1 -2.32%
CCOC(=O)C1CCN(C(=O)C2CCN(C3=NS(=O)(=O)C(c4ccc(C)cc4)=C3CC)CC2)CC1 -4.91%
Cc1cccc(C)c1NC(=O)Cn1c(=O)n(CC2CCC(C(=O)NCCc3ccccc3)CC2)c(=O)c2ccccc21 (centres undefined) -1.2%
CC(=O)c1ccc(S(=O)(=O)Nc2cccc(-c3ccc(N4CCCCC4)nn3)c2)cc1 1.91%
Cn1cc(S(=O)(=O)N2CCCCCC2)cc1C(=O)N1CCN(c2cccc(Cl)c2)CC1 -8.96%
CCOC(=O)CSc1nc2c(sc3ccccc32)c(=O)n1CCc1ccccc1 14.1%
Cc1ccc(CNC(=O)C2CCN(c3nc4ccccc4n(C)c3=O)CC2)cc1 5.55%
O=[N+]([O-])c1cc(-c2nc(-c3ccccc3)no2)ccc1N1CCN(c2ccccc2)CC1 -3.17%
Cc1ccc(Cl)cc1N1CCN(C(=O)CCC(=O)Nc2ccc3nc(N4CCC(C)CC4)cc(C)c3c2)CC1 -5.07%
Cc1ccc(C(=O)O)cc1Nc1nc2ccccc2n2nnnc12 10.4%
CCCOc1ccc(CNC(=O)C(CC)n2nc(C)c3sc4ccccc4c3c2=O)cc1 (centres undefined) -18.3%
Cc1ccc(NC(=O)Cn2nnc(-c3nc(-c4ccncc4)no3)c2N)cc1 9.68%
O=C(O)c1cc(=O)cc(C(=O)O)[nH]1 5.88%
O=S(=O)(c1ccccc1)c1nc(-c2cccs2)oc1SCc1ccccc1F -24.5%
CCC(C)(C)C1CCc2c(sc(NC(=O)C3c4ccccc4Oc4ccccc43)c2C(N)=O)C1 (centres undefined) 1.96%

activation, active:
Cc1oc(-c2ccccc2)nc1CCC(=O)c1ccc(CC2SC(=O)NC2=O)cc1 (centres undefined) 74.4%
CCOc1ccc2nc(C)cc(Nc3ccccc3OCC)c2c1 90%
